# In publication PMC5700166:
# Only a part is listed here, and it is no random draw. The list includes weakly bound sequences.
# Target: T1, GST-Ap-NF-kB RHD (UniProt A0A913YAJ5)
# T1 sequence: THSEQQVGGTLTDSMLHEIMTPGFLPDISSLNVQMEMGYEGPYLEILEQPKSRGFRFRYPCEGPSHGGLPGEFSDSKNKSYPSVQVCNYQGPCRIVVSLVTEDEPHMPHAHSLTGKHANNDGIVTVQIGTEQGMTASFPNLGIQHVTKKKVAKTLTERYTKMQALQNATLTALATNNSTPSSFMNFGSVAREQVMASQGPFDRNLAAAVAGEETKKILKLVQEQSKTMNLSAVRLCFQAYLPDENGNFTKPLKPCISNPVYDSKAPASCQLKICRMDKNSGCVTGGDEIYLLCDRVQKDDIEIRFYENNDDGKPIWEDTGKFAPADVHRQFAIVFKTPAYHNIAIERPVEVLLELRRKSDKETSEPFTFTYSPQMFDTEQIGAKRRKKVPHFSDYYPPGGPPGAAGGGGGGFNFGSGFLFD
# Assay: protein-binding microarray (PBM)
# Settings: PBM: ~300 nM protein, 6 mM HEPES pH 7.8, 80 mM KCl, 0.5 mM EDTA, 0.5 mM EGTA, 6% glycerol, 35 ng/ul poly-dIdC, 1% milk, 1 h, room temperature; high values mean tight binding; double strand, one strand shown
row,Sequence,binding signal [z-score]
1,CCGATTAACATCATCCGCCCTCCTGATGTTAATCGGGTCTTGATTCGCTTGACGCTGCTG,0.52
2,CCGATTAACATCAATTCTAGTGGTGATGTTAATCGGGTCTTGATTCGCTTGACGCTGCTG,0.334
3,CCGATTAACATCAGAACGGTTAATGATGTTAATCGGGTCTTGATTCGCTTGACGCTGCTG,0.301
4,CCGATTAACATCAACTCAGTTACTGATGTTAATCGGGTCTTGATTCGCTTGACGCTGCTG,-0.601
5,CCGATTAACATCACAGCGAATCCTGATGTTAATCGGGTCTTGATTCGCTTGACGCTGCTG,-0.363
6,CCGATTAACATCAACAAATTTCCTGATGTTAATCGGGTCTTGATTCGCTTGACGCTGCTG,0.272
7,CCGATTAACATCAGACAAGTTGGTGATGTTAATCGGGTCTTGATTCGCTTGACGCTGCTG,0.18
8,CCGATTAACATCATCCCTCTGAATGATGTTAATCGGGTCTTGATTCGCTTGACGCTGCTG,0.834
9,CCGATTAACATCAGGAAAGTTCCTGATGTTAATCGGGTCTTGATTCGCTTGACGCTGCTG,-0.179
10,CCGATTAACATCAATTGCTGTAATGATGTTAATCGGGTCTTGATTCGCTTGACGCTGCTG,-0.224
11,CCGATTAACATCAAATTTCCTAATGATGTTAATCGGGTCTTGATTCGCTTGACGCTGCTG,-0.463
12,CCGATTAACATCACATGGCGCTGTGATGTTAATCGGGTCTTGATTCGCTTGACGCTGCTG,-0.375
13,CCGATTAACATCAGGGTTCAGGCTGATGTTAATCGGGTCTTGATTCGCTTGACGCTGCTG,0.115
14,CCGATTAACATCAGGAATAAACATGATGTTAATCGGGTCTTGATTCGCTTGACGCTGCTG,-0.804
15,CCGATTAACATCAGTTATCAGTATGATGTTAATCGGGTCTTGATTCGCTTGACGCTGCTG,-0.34
16,CCGATTAACATCAACCTCAGCGCTGATGTTAATCGGGTCTTGATTCGCTTGACGCTGCTG,0.277
17,CCGATTAACATCAACGCTGTCCTTGATGTTAATCGGGTCTTGATTCGCTTGACGCTGCTG,-0.378
18,CCGATTAACATCAATCGGTCTACTGATGTTAATCGGGTCTTGATTCGCTTGACGCTGCTG,-0.227
19,CCGATTAACATCAGTCCGTATTATGATGTTAATCGGGTCTTGATTCGCTTGACGCTGCTG,-0.407
20,CCGATTAACATCACCATGATCGATGATGTTAATCGGGTCTTGATTCGCTTGACGCTGCTG,-0.246

row,Sequence,binding signal [z-score]
1,CCGATTAACATCACGCCACACACTGATGTTAATCGGGTCTTGATTCGCTTGACGCTGCTG,0.0936
2,CCGATTAACATCACTCAAGGTTTTGATGTTAATCGGGTCTTGATTCGCTTGACGCTGCTG,-0.095
3,CCGATTAACATCAGAATCTTTGGTGATGTTAATCGGGTCTTGATTCGCTTGACGCTGCTG,0.135
4,CCGATTAACATCAGCCGCCTACCTGATGTTAATCGGGTCTTGATTCGCTTGACGCTGCTG,0.47
5,CCGATTAACATCACAATAAAATGTGATGTTAATCGGGTCTTGATTCGCTTGACGCTGCTG,-1.06
6,CCGATTAACATCATCTGCCAGCATGATGTTAATCGGGTCTTGATTCGCTTGACGCTGCTG,-0.191
7,CCGATTAACATCATCGGTTAGTGTGATGTTAATCGGGTCTTGATTCGCTTGACGCTGCTG,0.149
8,CCGATTAACATCACGTAACTTGATGATGTTAATCGGGTCTTGATTCGCTTGACGCTGCTG,-0.695
9,CCGATTAACATCATACTCGCCGATGATGTTAATCGGGTCTTGATTCGCTTGACGCTGCTG,-0.0692
10,CCGATTAACATCAAGAGTTTTCCTGATGTTAATCGGGTCTTGATTCGCTTGACGCTGCTG,-0.00557
11,CCGATTAACATCAGTGCGCGTGTTGATGTTAATCGGGTCTTGATTCGCTTGACGCTGCTG,0.586
12,CCGATTAACATCATCTCCAGGTCTGATGTTAATCGGGTCTTGATTCGCTTGACGCTGCTG,0.0153
13,CCGATTAACATCACTTCTAACATTGATGTTAATCGGGTCTTGATTCGCTTGACGCTGCTG,-0.545
14,CCGATTAACATCAGATAGGTACTTGATGTTAATCGGGTCTTGATTCGCTTGACGCTGCTG,0.759
15,CCGATTAACATCACCAGGAAAGTTGATGTTAATCGGGTCTTGATTCGCTTGACGCTGCTG,-0.298
16,CCGATTAACATCAAGGAATTGCCTGATGTTAATCGGGTCTTGATTCGCTTGACGCTGCTG,-0.0689
17,CCGATTAACATCATGTACGCTGCTGATGTTAATCGGGTCTTGATTCGCTTGACGCTGCTG,-0.0475
18,CCGATTAACATCATCTGTGAGCCTGATGTTAATCGGGTCTTGATTCGCTTGACGCTGCTG,-0.439
19,CCGATTAACATCATCTTTTTACTTGATGTTAATCGGGTCTTGATTCGCTTGACGCTGCTG,-0.257
20,CCGATTAACATCACTGGTTGCTATGATGTTAATCGGGTCTTGATTCGCTTGACGCTGCTG,-0.43

# Target: T2, GST-Nv-NF-kB (Cys allele) (UniProt E5G601)
# T2 sequence: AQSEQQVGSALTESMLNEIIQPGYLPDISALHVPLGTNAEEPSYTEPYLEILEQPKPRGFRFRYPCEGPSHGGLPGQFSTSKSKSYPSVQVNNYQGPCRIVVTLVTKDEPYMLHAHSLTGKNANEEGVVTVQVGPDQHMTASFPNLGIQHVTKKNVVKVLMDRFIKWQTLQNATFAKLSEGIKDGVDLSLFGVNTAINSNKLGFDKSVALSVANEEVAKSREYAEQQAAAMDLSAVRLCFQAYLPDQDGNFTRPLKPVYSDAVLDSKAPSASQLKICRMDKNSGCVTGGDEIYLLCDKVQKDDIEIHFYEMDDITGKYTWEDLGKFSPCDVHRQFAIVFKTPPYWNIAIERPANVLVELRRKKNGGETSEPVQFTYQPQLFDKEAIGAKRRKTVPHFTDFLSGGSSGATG
# Assay: protein-binding microarray (PBM)
# Settings: PBM: ~300 nM protein, 6 mM HEPES pH 7.8, 80 mM KCl, 0.5 mM EDTA, 0.5 mM EGTA, 6% glycerol, 35 ng/ul poly-dIdC, 1% milk, 1 h, room temperature; Ap Aiptasia and Nv Nematostella (sea anemones) / Co Capsaspora / Aq Amphimedon (sponge) / Dm Drosophila / Hu human; RHD is the Rel homology domain; high values mean tight binding; most listed sequences are background and not binding sites; double strand, one strand shown
row,Sequence,binding signal [z-score]
1,CCGATTAACATCATCCGCCCTCCTGATGTTAATCGGGTCTTGATTCGCTTGACGCTGCTG,-0.135
2,CCGATTAACATCAATTCTAGTGGTGATGTTAATCGGGTCTTGATTCGCTTGACGCTGCTG,-0.265
3,CCGATTAACATCAGAACGGTTAATGATGTTAATCGGGTCTTGATTCGCTTGACGCTGCTG,0.121
4,CCGATTAACATCAACTCAGTTACTGATGTTAATCGGGTCTTGATTCGCTTGACGCTGCTG,-0.0737
5,CCGATTAACATCACAGCGAATCCTGATGTTAATCGGGTCTTGATTCGCTTGACGCTGCTG,-0.264
6,CCGATTAACATCAACAAATTTCCTGATGTTAATCGGGTCTTGATTCGCTTGACGCTGCTG,0.203
7,CCGATTAACATCAGACAAGTTGGTGATGTTAATCGGGTCTTGATTCGCTTGACGCTGCTG,0.1
8,CCGATTAACATCATCCCTCTGAATGATGTTAATCGGGTCTTGATTCGCTTGACGCTGCTG,0.45
9,CCGATTAACATCAGGAAAGTTCCTGATGTTAATCGGGTCTTGATTCGCTTGACGCTGCTG,0.27
10,CCGATTAACATCAATTGCTGTAATGATGTTAATCGGGTCTTGATTCGCTTGACGCTGCTG,0.123
11,CCGATTAACATCAAATTTCCTAATGATGTTAATCGGGTCTTGATTCGCTTGACGCTGCTG,0.071
12,CCGATTAACATCACATGGCGCTGTGATGTTAATCGGGTCTTGATTCGCTTGACGCTGCTG,0.0717
13,CCGATTAACATCAGGGTTCAGGCTGATGTTAATCGGGTCTTGATTCGCTTGACGCTGCTG,0.148
14,CCGATTAACATCAGGAATAAACATGATGTTAATCGGGTCTTGATTCGCTTGACGCTGCTG,0.308
15,CCGATTAACATCAGTTATCAGTATGATGTTAATCGGGTCTTGATTCGCTTGACGCTGCTG,-0.63
16,CCGATTAACATCAACCTCAGCGCTGATGTTAATCGGGTCTTGATTCGCTTGACGCTGCTG,-4.42e-05
17,CCGATTAACATCAACGCTGTCCTTGATGTTAATCGGGTCTTGATTCGCTTGACGCTGCTG,0.288
18,CCGATTAACATCAATCGGTCTACTGATGTTAATCGGGTCTTGATTCGCTTGACGCTGCTG,-0.665
19,CCGATTAACATCAGTCCGTATTATGATGTTAATCGGGTCTTGATTCGCTTGACGCTGCTG,0.536
20,CCGATTAACATCACCATGATCGATGATGTTAATCGGGTCTTGATTCGCTTGACGCTGCTG,-0.287

row,Sequence,binding signal [z-score]
1,CCGATTAACATCACGCCACACACTGATGTTAATCGGGTCTTGATTCGCTTGACGCTGCTG,-0.233
2,CCGATTAACATCACTCAAGGTTTTGATGTTAATCGGGTCTTGATTCGCTTGACGCTGCTG,-0.42
3,CCGATTAACATCAGAATCTTTGGTGATGTTAATCGGGTCTTGATTCGCTTGACGCTGCTG,-0.971
4,CCGATTAACATCAGCCGCCTACCTGATGTTAATCGGGTCTTGATTCGCTTGACGCTGCTG,-0.347
5,CCGATTAACATCACAATAAAATGTGATGTTAATCGGGTCTTGATTCGCTTGACGCTGCTG,-0.541
6,CCGATTAACATCATCTGCCAGCATGATGTTAATCGGGTCTTGATTCGCTTGACGCTGCTG,0.1
7,CCGATTAACATCATCGGTTAGTGTGATGTTAATCGGGTCTTGATTCGCTTGACGCTGCTG,-1.01
8,CCGATTAACATCACGTAACTTGATGATGTTAATCGGGTCTTGATTCGCTTGACGCTGCTG,-0.61
9,CCGATTAACATCATACTCGCCGATGATGTTAATCGGGTCTTGATTCGCTTGACGCTGCTG,-0.737
10,CCGATTAACATCAAGAGTTTTCCTGATGTTAATCGGGTCTTGATTCGCTTGACGCTGCTG,-0.171
11,CCGATTAACATCAGTGCGCGTGTTGATGTTAATCGGGTCTTGATTCGCTTGACGCTGCTG,0.00785
12,CCGATTAACATCATCTCCAGGTCTGATGTTAATCGGGTCTTGATTCGCTTGACGCTGCTG,-0.816
13,CCGATTAACATCACTTCTAACATTGATGTTAATCGGGTCTTGATTCGCTTGACGCTGCTG,-0.0639
14,CCGATTAACATCAGATAGGTACTTGATGTTAATCGGGTCTTGATTCGCTTGACGCTGCTG,0.404
15,CCGATTAACATCACCAGGAAAGTTGATGTTAATCGGGTCTTGATTCGCTTGACGCTGCTG,0.64
16,CCGATTAACATCAAGGAATTGCCTGATGTTAATCGGGTCTTGATTCGCTTGACGCTGCTG,-0.502
17,CCGATTAACATCATGTACGCTGCTGATGTTAATCGGGTCTTGATTCGCTTGACGCTGCTG,-0.354
18,CCGATTAACATCATCTGTGAGCCTGATGTTAATCGGGTCTTGATTCGCTTGACGCTGCTG,-0.242
19,CCGATTAACATCATCTTTTTACTTGATGTTAATCGGGTCTTGATTCGCTTGACGCTGCTG,0.915
20,CCGATTAACATCACTGGTTGCTATGATGTTAATCGGGTCTTGATTCGCTTGACGCTGCTG,-0.198
